# Measurements reported in patent US9730904B2, “Prophylactic/ameliorating agent for adult diseases comprising 5-aminolevulinic acid, derivative of 5-aminolevulinic acid, or salt of 5-aminolevulinic acid or the derivative of 5-aminolevulinic acid as active ingredient” (priority 2008, dated 2017).
# Key:
# [1] = system: borderline diabetes patients; experiment: Pilot study in diabetes patients by 5-ALA (Example 20, Table 1); assay type: in vivo, human
# Text: HbA1c was ameliorated in all of 6 patients, showing that the present invention is highly probable.
# [2] = system: KK-Ay mice; experiment: Type II diabetes mouse models, ALA and iron administration (Example 14); settings: 10 mg ALA + 92 mg sodium ferrous citrate, or 30 mg ALA + 276 mg, per 1 kg of body weight
# [3] = Biochemical values after ingestion of ALA phosphate/sodium ferrous citrate capsules, individual males (Examples 1, 2); assay type: in vivo, human; settings: person
# Description: A person ingested 1 capsule comprising 5 mg of aminolevulinic acid phosphate and 2.87 mg of sodium ferrous citrate per day, and improvement of the following biochemical values was observed 1 month after.
# [4] = system: borderline diabetes patient; experiment: HbA1c in a borderline diabetes patient ingesting the capsule (Examples 4, 16); assay type: in vivo, human
# Description: A person being a borderline diabetes patient ingested 1 capsule comprising 5 mg of aminolevulinic acid phosphate and 2.87 mg of sodium ferrous citrate per day, and improvement of the following biochemical values was observed 1 month, 2 months, and 3 months after initiating ingestion.
# The patient of Example 4 continued ingestion under the same conditions.
# [5] = system: healthy subjects; experiment: Double-blind test, 30 men and women, biochemical examination of blood (Example 13); assay type: in vivo, human
# Description: After obtaining informed consent before the initiation of the test, 30 men and women of age 22 to 63 participated in a double-blind test, and ingested a soft capsule comprising ALA phosphate, and ALA phosphate and ferrous citrate. Groups I, II, and III all ingested 1 capsule per day continuously for 4 weeks. The capsule of Group I comprised 5 mg of ALA phosphate; the capsule of Group II comprised 15 mg of ALA phosphate; and the capsule of Group III comprised 5 mg of ALA phosphate and 2.87 mg of ferrous citrate. Biochemical examination of blood was performed 2 weeks and 4 weeks after initiating ingestion, and 2 weeks after the end of the test.
# Thus, the effect of prevention/amelioration of the present invention was shown.
# [6] = system: type II diabetes patient; experiment: Fasting blood sugar / HbA1c in type II diabetes patients (Examples 15, 17, 18); assay type: in vivo, human
# Description: A type II diabetes patient was having insulin treatment, and was administered insulin in an amount of 10 units in the morning, 5 units at noon, and 10 units in the evening.
# A person suffering from type II diabetes, had been living being careful of their eating habit and taking exercises under the guidance of their doctor, while HbA1c increased gradually. On Nov. 7, 2008, they started to ingest 50 mg of ALA phosphate and iron citrate in an amount of 0.5-fold in molar ratio of ALA per day. […] Meanwhile, the fasting blood sugar level on Nov.
# A person having type II diabetes started to digest 15 mg of ALA phosphate and iron citrate in an amount of 0.5-fold in molar ratio of ALA per day, interrupted the ingestion once, and then restarted the ingestion. […] HbA1c is ameliorated by ingestion.
# [7] = system: healthy subjects; experiment: Safety test on healthy subjects (Example 19); assay type: in vivo, human; settings: for HbA1c change / blood sugar level change: 4 weeks; for HbA1c change: FIG. 9; for blood sugar level change: FIG. 10
# Description: As a safety test, healthy subjects started to ingest 25 mg of ALA phosphate and iron citrate in an amount of 0.5-fold in molar ratio of ALA per day, which ingestion was continued for 4 weeks. Blood was tested every two weeks including before ingestion, and after termination of ingestion. […] Further, the stratified results of healthy subjects which were divided into a group in which HbA1c before ingestion was higher than 4.8, and a group in which HbA1c before ingestion was 4.8 or less are observed in FIG. 9. […] Similarly, change of blood sugar level when the subjects were divided into a group with fasting blood sugar level of 90 or more, and a group with a level of less than 90 is shown in FIG. 10.
# [8] = Symptom case reports after ingestion or application (Examples 3, 5-12); settings: person; for migraine: 1 capsule (5 mg + 23 mg sodium ferrous citrate) per day; for physical and mental feeling: from the day following the ingestion
# [9] = patient of Example 4, same conditions continued, before initiation 7.4
# [10] = person, 1 capsule (5 mg + 2.87 mg sodium ferrous citrate) per day, before initiation 7.4
# [11] = Group II: 15 mg capsule per day, in 4 weeks
# [12] = Group III: 5 mg + 2.87 mg ferrous citrate capsule per day, in 2 weeks
# [13] = person, type II diabetes, 15 mg + iron citrate 0.5-fold molar per day, FIG. 8
# [14] = 1 capsule (5 mg + 2.87 mg sodium ferrous citrate) per day, from 2 days after initiating ingestion
# [15] = 1 capsule (50 mg + 57.4 mg sodium ferrous citrate) per day, after 3 months
# [16] = 2 capsules (each 5 mg + 23 mg sodium ferrous citrate) per day, from 1 week after initiating ingestion
compound,measurement,setting,value
"NCC(=O)CCC(=O)O [ALA, 5-aminolevulinic acid]",HbA1c(%) after,"[1]; 10 mg/day, 0.5 month, before 6.2",5.9%
same,HbA1c(%) after,"[1]; 10 mg/day, 2 month, before 6.7",5.7%
same,HbA1c(%) after,"[1]; 10 mg/day, 8 month, before 7.4",5.2%
same,HbA1c(%) after,"[1]; 50 mg/day, 3 month, before 6.1",5.7%
same,blood sugar levels,[2]; FIG. 1,decreased
same,sugar tolerance ability (glucose tolerance test),[2]; FIG. 2,increased
same,insulin secretion,[2]; FIG. 4,ameliorated
"NCC(=O)CCC(=O)O.O=P(O)(O)O [aminolevulinic acid phosphate, 5-aminolevulinic acid phosphate]",HbA1c,"[3]; 1 capsule (5 mg + 2.87 mg sodium ferrous citrate) each morning and afternoon, after 2 weeks, before 6.2, in %",6.2 → 5.9
same,GPT,"[3]; 1 capsule (5 mg + 2.87 mg sodium ferrous citrate) each morning and afternoon, after 2 weeks, before 17",17 → 15
same,GOT,"[3]; 1 capsule (5 mg + 2.87 mg sodium ferrous citrate) each morning and afternoon, after 2 weeks, before 19",19 → 19
same,γ-GTP,"[3]; 1 capsule (5 mg + 2.87 mg sodium ferrous citrate) each morning and afternoon, after 2 weeks, before 60",60 → 48
same,TG,"[3]; 1 capsule (5 mg + 2.87 mg sodium ferrous citrate) each morning and afternoon, after 2 weeks, before 314, in mg/dL",314 → 132
same,HDL,"[3]; 1 capsule (5 mg + 2.87 mg sodium ferrous citrate) per day, 1 month after, before 65, in mg/dL",65 → 58
same,LDL,"[3]; 1 capsule (5 mg + 2.87 mg sodium ferrous citrate) per day, 1 month after, before 192, in mg/dL",192 → 173
same,TC,"[3]; 1 capsule (5 mg + 2.87 mg sodium ferrous citrate) per day, 1 month after, before 264, in mg/dL",264 → 260
same,diabetes status,"[4]; patient of Example 4, at eight months",completely free of diabetes
same,HbA1c eight months later,[4]; [9],5.2
same,HbA1c five months after the initiation of administration,[4]; [9],5.9
same,HbAlc After 1 month,[4]; [10],7.2
same,HbAlc After 2 months,[4]; [10],6.9
same,HbAlc After 3 months,[4]; [10],6.8
same,HDL-cholesterol,"[5]; Group I: 5 mg capsule per day, at 4 weeks, before 64.6±17.3",60.9 ± 15.8 mg/dL
same,HDL-cholesterol decrease,"[5]; Group I: 5 mg capsule per day, in 4 weeks",3.7 ± 4.9 mg/dL
same,ALP,"[5]; Group II: 15 mg capsule per day, at 2 weeks, before 195.2±74.7",177.2±55.2 U/L
same,Creatinine,"[5]; Group II: 15 mg capsule per day, at 4 weeks, before 0.701±0.134",0.661 ± 0.109 mg/dL
same,Total proteins,"[5]; Group II: 15 mg capsule per day, at 4 weeks, before 7.28±0.48",6.99 ± 0.47 g/dL
same,ALP decrease,"[5]; Group II: 15 mg capsule per day, in 2 weeks",18.0±23.2 U/L
same,Creatinine decrease,[5]; [11],0.040 ± 0.037 mg/dL
same,Total proteins decrease,[5]; [11],0.29 ± 0.22 g/dL
same,Na increase,"[5]; Group III: 5 mg + 2.87 mg ferrous citrate capsule per day, 2 weeks after the end of the test",0.7±0.7 mEq/L
same,Na,"[5]; Group III: 5 mg + 2.87 mg ferrous citrate capsule per day, 2 weeks after the end of the test, before 140.4±1.6",141.1±1.5 mEq/L
same,Albumin,"[5]; Group III: 5 mg + 2.87 mg ferrous citrate capsule per day, at 2 weeks, before 4.43±0.26",4.31 ± 0.26 g/dL
same,HDL-cholesterol,"[5]; Group III: 5 mg + 2.87 mg ferrous citrate capsule per day, at 2 weeks, before 67.8±12.4",65.2 ± 11.7 mg/dL
same,LDL-cholesterol,"[5]; Group III: 5 mg + 2.87 mg ferrous citrate capsule per day, at 2 weeks, before 122.5±20.6",111.8 ± 25.9 mg/dL
same,Total cholesterol,"[5]; Group III: 5 mg + 2.87 mg ferrous citrate capsule per day, at 2 weeks, before 204.1±21.0",190.9 ± 30.3 mg/dL
same,Albumin decrease,[5]; [12],0.12 ± 0.11 g/dL
same,HDL-cholesterol decrease,[5]; [12],2.6 ± 2.8 mg/dL
same,LDL-cholesterol decrease,[5]; [12],10.7 ± 7.8 mg/dL
same,Total cholesterol decrease,[5]; [12],13.2 ± 15.0 mg/dL
same,HDL-cholesterol decrease,"[5]; listed under Group III (5 mg + 2.87 mg ferrous citrate), 2 weeks after the end of the test",2.8 ± 3.7 mg/dL
same,HDL-cholesterol,"[5]; listed under Group III (5 mg + 2.87 mg ferrous citrate), 2 weeks after the end of the test, before 67.8±12.4",65.0 ± 11.4 mg/dL
same,HbA1c during ingestion,[6]; [13],ameliorated
same,HbA1c when the ingestion was interrupted,[6]; [13],increased
same,HbA1c,"[6]; person, type II diabetes, 50 mg + iron citrate 0.5-fold molar per day, FIG. 7",rapid improvement
same,fasting blood sugar level,"[6]; person, type II diabetes, 50 mg + iron citrate 0.5-fold molar per day, May 9, 2009 (start Nov. 7, 2008: 195 mg/dl)",107 mg/dL
same,"fasting blood sugar, average decrease","[6]; type II diabetes patient on insulin, 25 mg + iron citrate 0.5-fold molar per day, in 1 month, FIG. 5 auxiliary line",about 15 mg/dl
same,"blood test, average levels",[7]; 25 mg + iron citrate 0.5-fold molar per day for 4 weeks,No significant change
same,HbA1c change,"[7]; group with HbA1c before ingestion 4.8 or less, 25 mg + iron citrate per day",rather increasing tendency
same,HbA1c change,"[7]; group with HbA1c before ingestion higher than 4.8, 25 mg + iron citrate per day",some decreasing tendency
same,blood sugar level change,"[7]; group with fasting blood sugar level of 90 or more, 25 mg + iron citrate per day",mild decrease
same,blood sugar level change,"[7]; group with fasting blood sugar level of less than 90, 25 mg + iron citrate per day",almost no change
same,hypertension,[8]; 1 capsule (5 mg + 2.87 mg sodium ferrous citrate) per day,ameliorated
same,shoulder discomfort,"[8]; 1 capsule (5 mg + 2.87 mg sodium ferrous citrate) per day, from 1 week after initiating ingestion",Improvement
same,constipation,[8]; [14],not observed
same,sensitivity to cold temperature,[8]; [14],ameliorated
same,migraine,[8]; after 1 week of ingestion,completely cured
same,migraine,[8]; from the day after initiating ingestion,amelioration
same,body weight decrease,[8]; [15],5 kg
same,gray hair and crimples,[8]; [15],ameliorated
same,body weight,"[8]; 1 capsule (50 mg + 57.4 mg sodium ferrous citrate) per day, after 3 months, before 79 kg",74 kg
same,physical and mental feeling,[8]; 1 capsule (50 mg + 57.4 mg sodium ferrous citrate) per day,felt fulfilled physically and mentally
same,blood pressure after stopping antihypertensives,"[8]; 1 capsule per day, antihypertensives stopped 1 month after",maintained a normal level
same,shoulder discomfort,"[8]; 1 wt % each with DTPA iron applied once a day to the sites, in a week",gone
same,sexual intercourse,"[8]; 2 capsules (each 5 mg + 2.87 mg sodium ferrous citrate) per day, the next day of ingestion",for the first time in a year
same,erection,"[8]; 2 capsules (each 5 mg + 2.87 mg sodium ferrous citrate) per day, the next morning",observed
same,physical strength and facial rejuvenation,[8]; [16],felt improvement
same,symptoms of menopausal disorder such as hot-flash or frustration,[8]; [16],gone
same,physical and mental feeling,[8]; 2 capsules (each 5 mg + 23 mg sodium ferrous citrate) per day,felt fulfilled physically and mentally
same,sexual intercourse,"[8]; 2 capsules (each 5 mg + 23 mg sodium ferrous citrate) per day, three days after initiating ingestion",for the first time in half a year
